In all, about 310,000 compounds went through this assay and about 14,000 (4.5%) showed an effect of 50% or more. The effect is printed as a negative number. This is one part of the list.
target: human ether-à-go-go-related gene (hERG) potassium channel (human, UniProt Q12809); test: primary screen, population patch clamp on CHO cells stably expressing hERG
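Note: peak tail current of the secondary pulse compared with the same well before compound.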

human ether-à-go-go-related gene (hERG) potassium channel, sequence (Q12809 whole entry, looked up): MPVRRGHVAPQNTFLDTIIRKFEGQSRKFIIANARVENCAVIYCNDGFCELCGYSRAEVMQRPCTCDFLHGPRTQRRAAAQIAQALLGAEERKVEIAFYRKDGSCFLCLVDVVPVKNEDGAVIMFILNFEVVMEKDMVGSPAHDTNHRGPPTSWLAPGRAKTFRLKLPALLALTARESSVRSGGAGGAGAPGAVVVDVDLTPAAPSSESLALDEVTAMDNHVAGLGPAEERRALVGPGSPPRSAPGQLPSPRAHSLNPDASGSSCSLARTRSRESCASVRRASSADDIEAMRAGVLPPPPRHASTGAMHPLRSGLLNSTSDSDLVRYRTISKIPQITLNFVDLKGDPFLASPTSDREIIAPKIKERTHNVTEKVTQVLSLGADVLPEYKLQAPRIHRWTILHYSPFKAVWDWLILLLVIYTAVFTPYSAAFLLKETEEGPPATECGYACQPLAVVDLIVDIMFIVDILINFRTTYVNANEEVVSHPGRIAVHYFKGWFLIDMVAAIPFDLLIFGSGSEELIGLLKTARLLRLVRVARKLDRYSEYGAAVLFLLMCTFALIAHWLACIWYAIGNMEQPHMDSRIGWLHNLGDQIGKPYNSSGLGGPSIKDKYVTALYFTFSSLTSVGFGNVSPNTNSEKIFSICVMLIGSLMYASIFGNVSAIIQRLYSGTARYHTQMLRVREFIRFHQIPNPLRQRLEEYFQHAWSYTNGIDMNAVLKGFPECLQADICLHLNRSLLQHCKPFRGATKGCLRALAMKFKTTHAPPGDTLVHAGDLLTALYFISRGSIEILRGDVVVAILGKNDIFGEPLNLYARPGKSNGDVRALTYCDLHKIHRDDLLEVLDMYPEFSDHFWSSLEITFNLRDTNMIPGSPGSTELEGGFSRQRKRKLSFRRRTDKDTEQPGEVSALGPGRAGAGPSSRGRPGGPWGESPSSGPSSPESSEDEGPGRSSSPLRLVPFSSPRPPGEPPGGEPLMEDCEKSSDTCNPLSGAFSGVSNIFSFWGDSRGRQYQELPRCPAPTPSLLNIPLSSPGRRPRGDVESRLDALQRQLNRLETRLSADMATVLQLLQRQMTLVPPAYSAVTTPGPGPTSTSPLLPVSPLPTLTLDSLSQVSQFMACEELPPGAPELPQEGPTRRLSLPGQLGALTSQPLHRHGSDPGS

SMILES | hERG current change (%, negative = inhibition) at 10uM [%]
O=C1Nc2ccccc2C1(c1ccccc1)c1ccccc1 | -5.95
O=c1ccc2ccc(O[C@@H]3O[C@H](CO)[C@@H](O)[C@H](O)[C@H]3O)c(O)c2o1 | 23.8
CCOc1ccc(CNC(=O)CCCC(=O)n2ncc3cc(C)ccc32)cc1 | 8.34
CC(=O)c1cc2c(cc1NC(=O)c1cnc(C)cn1)OCO2 | 4.22
CCC(c1nnnn1C(C)(C)C)N1CCN(C(=O)c2ccco2)CC1 (stereo not drawn) | -9.54
Cc1ccc(CCNC(=O)C23CN(Cc4ccccc4)CC2C(c2cccc([N+](=O)[O-])c2)=NO3)cc1 (stereo not drawn) | -14.8
Cc1coc2c(C)c3oc(=O)c(CCC(=O)NCCCN4CCCC4=O)c(C)c3cc12 | -12.8
C=CCCC(=O)N(C)CCO | 20.4
CC(=O)N1c2ccc(Cl)cc2C2OCCC2C1c1ccco1 (stereo not drawn) | 9.11
O=C(Cc1ccc(Cl)cc1)Nc1ccccc1CO | -6.75
Cc1cc(C(=O)Nc2nc(-c3ccccn3)cs2)ccc1[N+](=O)[O-] | -4.11
OCC[C@H]1C[C@@H](O)[C@H](O)[C@@]2(Cc3ccccc3O2)O1 | 26.8
N=C1C(c2nc3ccccc3s2)=C(O)CN1NC(=O)c1c[nH]c2ccccc12 | 16.8
CCCN(CC(=O)Nc1cccc(Br)c1)CC(=O)Nc1ccc(F)c(F)c1F | -10.1
CSCC[C@H](NC(=O)C1CCCC1)c1nc2ccccc2[nH]1 | 9.91
COc1cccc(CNC(=O)C(=O)NCCC2CCCCN2S(=O)(=O)c2ccccc2)c1 (stereo not drawn) | -34.6
COC(=O)c1cc2c(ccn2-c2ccc(F)cc2)n1Cc1ccc(OC)cc1 | -0.0838
CC(O)(CS(=O)(=O)Cc1ccc(Cl)cc1)C(=O)Nc1cccc(C(F)(F)F)c1 (stereo not drawn) | -3.03
COC(=O)C1(C)NC(c2ccccc2OC)C2C(=O)N(c3ccccc3)C(=O)C21 (stereo not drawn) | 3.97
CN1C(=O)C2(c3ccccc31)c1c(oc3ccccc3c1=O)C(=O)N2CCCO (stereo not drawn) | 16.3
CC1CCC2C(=O)N(c3ccc(NC4CCCCC4)c([N+](=O)[O-])c3)C(=O)C2C1 (stereo not drawn) | 1.71
COC(=O)C1=C(N)OC(C)=C(C(C)=O)C12C(=O)N(C)c1ccccc12 (stereo not drawn) | -3.07
COC(=O)c1nc(NC(C)=O)n[nH]1 | 14
COc1ccc(CCNS(=O)(=O)c2ccc(F)cc2)cc1OC | -5.18

From PMC4336329 (PLoS ONE, 2015)
